Data from PubChem BioAssay AID1963428 (Molecular Pharmacology Branch, DTP, NCI, 2024).
Not every entry of the source has a single result; some have several. This is not the full list of results. An entry can have further records. The records of an entry are repeated measurements in other runs, samples, wells, individuals or studies. Signs of the kind (2×) stand for listed records that agree. Dates in brackets are months of testing.

Test system: 171881-019-R-J1-PDC complex spheroid growth, % test/control
Test: Anticancer human tumor 171881-019-R-J1-PDC patient-derived invasive breast carcinoma cell line growth inhibition [Asc]
Settings: stronger effect = lower value
Protocol: Multicellular complex tumor spheroid response to apoptosis pathway targeting inhibitors Alrizomadlin, Pelcitoclax, and Dasminapant in combination with a variety of drugs and investigational agents in selected tumor cell lines
The MDM2 inhibitor alrizomadlin, the Bcl-2/Bcl-xL inhibitor pelcitoclax, and the IAPs inhibitor dasminapant were evaluated both individually and in combination with standard of care and investigational anticancer small molecules within a complex spheroid model of solid tumors. . Complex spheroids include a stromal component modeled by human endothelial cells (HUVEC) and fibroblasts modeled by human mesenchymal stem cells (MSCs). The concentration ranges selected for each drug and investigational agent were based upon clinically achievable concentrations if the clinical Cmax of the agent was known.
Compounds. The drugs and investigational agents: alrizomadlin (APG-115; NSC831270), pelcitoclax (APG-1252; NSC835773), dasminapant (APG-1387;NSC834197), TAK-243 (NSC785004), copanlisib (NSC809693), olaparib (NSC753686), talazoparib (NSC767125), cobimetinib (NSC 768068), eltanexor (KPT-8602, NSC 794443), abemaciclib (NSC 768073), sotorasib (NSC818433), adagrasib (NSC 831453), MRTX-1133 (NSC 836407), Iadademestat (ORY1001, NSC 806812), and RMC-4630 (NSC839698), were obtained from the NCI Developmental Therapeutics Program Chemical Repository. The FDA-approved anticancer drug set is available from the Developmental Therapeutics Program at https://dtp.cancer.gov/organization/dscb/obtaining/available plates.htm. […] The stock solutions were prepared in dimethyl sulfoxide (DMSO, Sigma-Aldrich, St. Louis, MO, cat. D2650) at 800-fold the tested concentration and stored at -70 degrees C prior to their use. All drugs and investigational agents were tested over a range starting from a high concentration at or near the clinical Cmax and decreasing in half-log increments. If the clinical Cmax for an agent had not been determined, the highest concentration tested was 10 microM.
The patient-derived cancer (PDC) cell lines include five colon adenocarcinomas: 186277-243-T-J2-PDC, 616215-338-R-J1-PDC, 439559-082-T-J2-PDC, 463943-066-T-J2-PDC, and 519858-162-T-J1-PDC; three pancreatic carcinomas: 323965-272-R-J2-PDC, 521955-158-R6-J3-PDC, and 521955-158-R2-J5-PDC; two uterine sarcomas: 327498-152-R-J2-PDC and 993429-296-R-J1-PDC; two rhabdomyosarcomas: 755483-174-R-J1-PDC and 772245-204-R-J1-PDC; two soft tissue sarcomas: 126254-015-R-J1-PDC and 494315-158-R-J1-PDC; two malignant fibrous histiocytomas: 317291-083-R-J1-PDC and 596521-263-R-J1-PDC; two breast carcinomas: 171881-019-R-J1-PDC and 885512-296-R-J2-PDC; and one ovarian carcinoma: 6556581-035-R-J-PDC were obtained from the NCI PDMR, (https://pdmr.cancer.gov). The established cell lines HSSY-2 synovial sarcoma (RRID:CVCL 8719), SYO-1 synovial sarcoma (RRID:CVCL_7146), MPNST malignant peripheral neural sheath tumor were obtained from the Sloan Kettering Institute. The following established cell lines were purchased from the American Type Culture Collection (ATCC, Manassas, VA), Sor the received from the NCI repository:, PANC-1 pancreatic carcinoma (CRL-1469, RRID:CVCL_0480), OVCAR-5 ovarian carcinoma (RRID:CVCL_1628), OVCAR-8 ovarian carcinoma (RRID:CVCL_1629), , MCF-7 breast carcinoma (CRL-12584, RRID:CVCL_0031), MDA-MB-231 breast carcinoma (CRL-12532, RRID:CVCL_0062), NCI-H1876 small cell lung carcinoma (CRL-5902, RRID:CVCL_1503), NCI-H510A small cell lung carcinoma (HTB-184, RRID:CVCL_1565), NCI-H1417 (CRL-5869, RRID:CVCL_1469), and NCI-H196 small cell lung carcinoma (CRL-5823, RRID:CVCL_1509). Dr. Peter Houghton (Greehey Children's Cancer Research Institute, University of Texas Health Science Center, San Antonio, TX) provided Rh-18 rhabdomyosarcoma (RRID:CVCL_1659). Pooled donor human umbilical vein endothelial cells (HUVEC, Lonza, cat. CC-2519) and human mesenchymal stem cells (hMSC, Lonza, cat. PT-2501) were purchased from Lonza (Walkersville, MD).
Cell Culture. […]
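Also: spheroids exposed to compounds for 7 days.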

Row | SMILES | viability, T/C (compound alone 0.03 µM) | viability, T/C (compound alone 0.0949 µM) | viability, T/C (compound alone 0.3 µM) | viability, T/C (compound alone 0.949 µM) | viability, T/C (compound alone 3 µM) | viability, T/C (compound alone 0.316 µM) | viability, T/C (compound alone 1 µM) | viability, T/C (compound alone 3.16 µM) | viability, T/C (compound alone 0.01 µM) | viability, T/C (compound alone 0.0316 µM)
1 | CCN1C(C(=O)NC23CCC(C(=O)O)(CC2)CC3)C(c2cccc(Cl)c2F)C2(C(=O)Nc3cc(Cl)ccc32)C12CCCCC2 (configuration not stated) | 88, 118, 97.5, 90.6, 123, 111, 117, 95.9, 101, 115, 96, 105, 79.7, 87.5% [2022-09] and 90.9% [2022-10] | 96.4, 95.4, 108, 98.6, 96.2, 98.7, 107, 91, 97.6, 102, 96.8, 111, 103, 79.1% [2022-09] and 102% [2022-10] | 112, 109, 108 (2×), 93.1, 114, 110, 98.7, 106, 95.7, 105, 121, 97, 99.7% [2022-09] and 109% [2022-10] | 110 (3×), 98.7, 98.3, 96, 99.8, 128, 103, 105, 112, 113, 106, 77.8% [2022-09] and 115% [2022-10] | 111, 122, 91.5, 97.2, 104, 119, 115, 90.8, 101, 108, 87.7, 113, 98.7, 82.6% [2022-09] and 114% [2022-10] | – | – | – | – | –
2 | Cc1c(S(C)(=O)=O)c(-c2cc(F)cc(N3CCN(c4ccc(NS(=O)(=O)c5ccc(NC(CCN6CCC(C(=O)OCCCP(=O)(O)O)CC6)CSc6ccccc6)c(S(=O)(=O)C(F)(F)F)c5)cc4)CC3)c2)c(-c2ccc(Cl)cc2)n1C(C)C (configuration not stated) | – | – | – | – | – | 119 (2×), 118, 108, 121 (2×), 117, 91.5, 109, 111 (2×), 124, 98.3, 133% | 155, 128, 135, 122, 125, 132 (3×), 120 (2×), 107, 131, 140, 160% | 172, 167 (2×), 143, 183, 148, 149, 110, 155, 141, 152, 145, 156, 153% | – | –
3 | CNC(C)C(=O)NC1CN(S(=O)(=O)c2cccc(S(=O)(=O)N3CCC4CCC(C(=O)NC(c5ccccc5)c5ccccc5)N4C(=O)C(NC(=O)C(C)NC)C3)c2)CCC2CCC(C(=O)NC(c3ccccc3)c3ccccc3)N2C1=O (configuration not stated) | – | – | – | – | – | 82.7%, 94.2% [2022-09] and 94, 90.3, 91.4, 88.2, 106, 92.8, 95.2, 82.1, 109 (2×), 88.7, 90.6, 93.4% [2022-10] | 97.4%, 79.2% [2022-09] and 86.8, 93.3, 97.7, 97.1, 111, 110, 90.9, 79.3, 93.8, 101, 90.5, 99.5, 102% [2022-10] | – | 95.4%, 86.7% [2022-09] and 94.8, 95.4, 83, 98.7, 107, 89.6, 94 (2×), 79, 106, 94.5, 90.5, 83.5% [2022-10] | 98.3%, 100% [2022-09] and 109 (2×), 87.8, 96.5, 87.2, 103, 98.7, 83.1, 95.2, 96.1, 101, 89.9, 95% [2022-10]
